# In PubChem BioAssay (Tox21):
# Values joined by “and” are separate entries in the source; they are usually repeats but may differ in a detail not shown here. Equal entries are not always repeated. The shares of active, inactive and inconclusive entries below differ from those in the screen. A call without a number means that no potency is given here. For some of these results: Potencies beside an inconclusive call are fits to weak or partial responses and may not hold up. A structure can be active in one record and inactive in another. Active and inactive are the calls of the source. Unless noted, calls come from the whole dose curve; as a rule, active = well fitted curve in the direction sought with a large enough effect in the repeat runs; inconclusive = weak or mixed curves; inactive = no such curve, though single readings can be large; an effect the other way counts as inactive or inconclusive.
# Columns and labels:
# [1] = qHTS RealTime-Glo MT Cell Viability Assay in HepG2 cells - 24 hour (AID 1224867); note: nearly all actives have a fitted effect of over 50% in size; note: potency is the fitted concentration of half-maximal effect
# Summary of the method: (§1)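 Cells + NanoLuc/prosubstrate dispensed (600 cells/well) → 5 h at 37 C/5% CO2 → compounds in DMSO transferred → 40 h incubation at 37 C, luminescence read at 0, 8, 16, 24, 32, 40 h.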
# [2] = qHTS assay for small molecule disruptors of the mitochondrial membrane potential - cell viability (AID 720634; calls by dose curve; note: nearly all actives have a fitted effect of over 20% in size; note: potency is the fitted concentration of half-maximal effect;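 for activity change, negative = cytotoxicity: human HepG2 liver cancer cells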)
# Summary of the method: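 Measuring cytotoxicity alongside mitochondrial potential, the screen quantified ATP by luminescence in HepG2 cells after 1 hr compound incubation and a 30 min room-temperature CellTiter-Glo step.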
# [3] = A CellTox Green Cytotoxicity Assay to monitor cytotoxicity in HEK293 cells - 8 hour (AID 1224884); note: nearly all actives have a fitted effect of over 35% in size; note: potency is the fitted concentration of half-maximal effect
# Summary of the method: (§2)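 Seeding of HEK293 cells together with cytotoxicity dye preceded a 5 h incubation at 37 C/5% CO2. Test compounds in DMSO were then added and fluorescence monitored across 40 h.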
# [4] = qHTS RealTime-Glo MT Cell Viability Assay in HepG2 cells - 40 hour (AID 1224870); note: nearly all actives have a fitted effect of over 50% in size; note: potency is the fitted concentration of half-maximal effect
# Summary of the method: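 Real-time viability: cells seeded at 600 per well together with NanoLuc and cell-permeant prosubstrate, compounds added after 5 h incubation. Luminescence tracked at 0, 8, 16, 24, 32 and 40 h of exposure.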
# [5] = qHTS assay to identify small molecule agonists of the estrogen related receptor (ERR) signaling pathway from Tox21 library (AID 1224849; calls by dose curve; note: nearly all actives have a fitted effect of over 15% in size); conditions: ERR reporter cell line, ONE-Glo luciferase, 18 h; at 92.4 µM (top of the series) unless noted
# Summary of the method: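 Six hours post-seeding at 37 C/5% CO2, ERR cells receive DMSO-solubilised compounds; after 18 h at 37 C, ONE-Glo reagent is applied and luminescence recorded.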
# [6] = qHTS assay to identify small molecule HDAC inhibitors (AID 1259364); note: potency is the fitted concentration of half-maximal effect;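 note: wild-type HCT-116 cells with endogenous class I/II HDAC activity; nearly all actives have a fitted effect of over 45% in size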
# Summary of the method: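 Relative class I and II HDAC activity is taken from the luminogenic signal in HCT-116 cells, with compound exposure 2 hr and reagent development 30 min at room temperature.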
# [7] = molecular target: Thyrotropin-releasing hormone receptor (Homo sapiens) (UniProt P34981); assay: qHTS assay to identify small molecule antagonists of the thyrotropin-releasing hormone receptor (TRHR) signaling pathway (AID 1346877; active = well fitted inhibition curve with a large enough effect in the repeat runs, not every such curve was filed as active; inconclusive = weak or mixed curves; note: potency is the fitted concentration of half-maximal effect)
# UniProt P34981, sequence (P34981 whole entry, looked up): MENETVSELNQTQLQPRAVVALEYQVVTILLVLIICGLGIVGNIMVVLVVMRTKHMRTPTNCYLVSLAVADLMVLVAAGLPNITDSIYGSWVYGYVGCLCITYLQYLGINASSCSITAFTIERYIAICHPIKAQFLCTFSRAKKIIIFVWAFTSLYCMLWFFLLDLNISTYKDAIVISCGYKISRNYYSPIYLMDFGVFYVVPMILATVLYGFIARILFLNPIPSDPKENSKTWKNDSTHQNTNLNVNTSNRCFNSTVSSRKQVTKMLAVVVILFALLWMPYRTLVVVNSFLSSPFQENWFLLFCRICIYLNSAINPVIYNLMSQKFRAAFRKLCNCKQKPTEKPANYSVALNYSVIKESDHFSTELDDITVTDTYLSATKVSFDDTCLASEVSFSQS
# Summary of the method: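 Screening used HEK293 cells engineered with TRHR, with a brief 5 min room-temperature compound exposure preceding addition of TRH to 1 nM. The read-out was kinetic calcium-dye fluorescence, concentration-response from 15 doses in triplicate.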
# Aromatase (Homo sapiens) = Aromatase (Homo sapiens) (UniProt P11511); assay: qHTS assay to identify aromatase inhibitors (AID 743083); note: potency is the fitted concentration of half-maximal effect; nearly all actives have a fitted effect of over 55% in size
# UniProt P11511, sequence (P11511 whole entry, looked up): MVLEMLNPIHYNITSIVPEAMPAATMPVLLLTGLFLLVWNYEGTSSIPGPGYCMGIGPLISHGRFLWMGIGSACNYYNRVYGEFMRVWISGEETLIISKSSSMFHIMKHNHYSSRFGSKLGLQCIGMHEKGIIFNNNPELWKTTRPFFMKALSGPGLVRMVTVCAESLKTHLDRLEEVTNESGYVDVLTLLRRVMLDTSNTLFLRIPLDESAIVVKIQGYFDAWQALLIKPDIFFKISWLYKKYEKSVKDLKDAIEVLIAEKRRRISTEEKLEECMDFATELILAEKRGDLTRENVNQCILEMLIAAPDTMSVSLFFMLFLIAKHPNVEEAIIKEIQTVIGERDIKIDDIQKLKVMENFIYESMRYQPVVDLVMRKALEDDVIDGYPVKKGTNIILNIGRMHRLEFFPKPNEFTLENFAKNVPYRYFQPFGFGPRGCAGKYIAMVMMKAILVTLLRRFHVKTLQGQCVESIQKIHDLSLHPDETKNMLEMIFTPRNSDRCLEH
# [8] = qHTS assay to identify small molecule antagonists of the glucocorticoid receptor (GR) signaling pathway - cell viability counter screen (AID 720693); conditions: GR-bla HeLa viability, CellTiter-Glo luminescence, 18 h, with 5 nM dexamethasone present; viability change, negative = cytotoxic: at 58.5 µM (top of the series) unless noted; note: nearly all actives have a fitted effect of over 55% in size; note: potency is the fitted concentration of half-maximal effect
# [9] = A CellTox Green Cytotoxicity Assay to monitor cytotoxicity in HEK293 cells - 0 hour (AID 1224869); note: nearly all actives have a fitted effect of over 50% in size; note: potency is the fitted concentration of half-maximal effect
# Summary of the method: as §2
# [10] = qHTS assay to identify small molecule antagonists of the TGF-beta/Smad signaling pathway - cell viability counter screen (AID 1346824); note: nearly all actives have a fitted effect of over 50% in size
# Summary of the method: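 Cytotoxicity counter-screen run in the same wells as the beta-lactamase Smad reporter read: CellTiter-Glo luminescence after 30 min at room temperature. HEK 293T SBE-bla cells had 5 hr compound exposure at 37 C with TGF-beta1 (0.25 ng/mL stock).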
# [11] = qHTS assay to identify small molecule agonists of the hypoxia (HIF-1) signaling pathway (AID 1224846; active = well fitted activation curve with a large enough effect in the signal ratio in the repeat runs, not every such curve was filed as active; inconclusive = weak or mixed curves; the % refers to the signal ratio); conditions: HRE-bla ME-180 cells, beta-lactamase ratio, 17 h; activation: at 76.8 µM (top of the series) unless noted
# Summary of the method: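 Hypoxia-pathway activation was scored as increased beta-lactamase from an HRE-controlled reporter in ME-180 cells; plated at 2,000 cells per well with 0.5% dialyzed FBS, they were exposed 17 hrs to compounds and then given CCF4-AM.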
# [12] = qHTS RealTime-Glo MT Cell Viability Assay in HepG2 cells - 32 hour (AID 1224877); note: nearly all actives have a fitted effect of over 55% in size; note: potency is the fitted concentration of half-maximal effect
# Summary of the method: as §1
# [13] = qHTS assay for small molecule activators of the heat shock response signaling pathway - cell viability counter screen (AID 743209); conditions: HSE-bla HeLa viability, CellTiter-Glo luminescence, 5 h; activity change, negative = cytotoxicity: at 62.6 µM (top of the series); note: nearly all actives have a fitted effect of over 50% in size; note: potency is the fitted concentration of half-maximal effect
# Summary of the method: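 Counter screen for cytotoxicity in HeLa HSE-bla reporter cells. Treatment was 5 h at 37 C; viability was detected by luminescent ATP assay (CellTiter-Glo) in the same wells as the beta-lactamase read.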
# [14] = qHTS assay to identify small molecule HDAC inhibitors - cell viability counter screen (AID 1259365); note: nearly all actives have a fitted effect of over 50% in size
# Summary of the method: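 Wild-type HCT-116 cells, 1,500/well, cultured overnight, then compound-treated 2 h at 37 C. Viability measured as ATP luminescence with CellTiter-Glo after 30 min at room temperature.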
# [15] = qHTS assay to identify small molecule agonists of the estrogen related receptor signaling pathway with the pleiotropic PPARgamma coactivator (PGC) from Tox21 10K library (AID 1224842); note: nearly all actives have a fitted effect of over 15% in size; note: potency is the fitted concentration of half-maximal effect
# Summary of the method: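 Luminescence from One-Glo (30 min, room temperature) measured after PGC/ERR cells had 18 h at 37 C with pinned compound (23 nL in DMSO). Cells had been seeded at 2,000 per well and pre-incubated 6 h.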
# [16] = molecular target: Acetylcholinesterase (Homo sapiens) (UniProt P22303); assay: Acetylcholinesterase (AChE) small molecule antagonists: enzyme-based qHTS assay (AID 1347397; calls by dose curve; note: potency is the fitted concentration of half-maximal effect; nearly all actives have a fitted effect of over 55% in size); conditions: Potency: AChE enzyme activity inhibition; outcome: AChE enzyme activity inhibition
# UniProt P22303, sequence (P22303 whole entry, looked up): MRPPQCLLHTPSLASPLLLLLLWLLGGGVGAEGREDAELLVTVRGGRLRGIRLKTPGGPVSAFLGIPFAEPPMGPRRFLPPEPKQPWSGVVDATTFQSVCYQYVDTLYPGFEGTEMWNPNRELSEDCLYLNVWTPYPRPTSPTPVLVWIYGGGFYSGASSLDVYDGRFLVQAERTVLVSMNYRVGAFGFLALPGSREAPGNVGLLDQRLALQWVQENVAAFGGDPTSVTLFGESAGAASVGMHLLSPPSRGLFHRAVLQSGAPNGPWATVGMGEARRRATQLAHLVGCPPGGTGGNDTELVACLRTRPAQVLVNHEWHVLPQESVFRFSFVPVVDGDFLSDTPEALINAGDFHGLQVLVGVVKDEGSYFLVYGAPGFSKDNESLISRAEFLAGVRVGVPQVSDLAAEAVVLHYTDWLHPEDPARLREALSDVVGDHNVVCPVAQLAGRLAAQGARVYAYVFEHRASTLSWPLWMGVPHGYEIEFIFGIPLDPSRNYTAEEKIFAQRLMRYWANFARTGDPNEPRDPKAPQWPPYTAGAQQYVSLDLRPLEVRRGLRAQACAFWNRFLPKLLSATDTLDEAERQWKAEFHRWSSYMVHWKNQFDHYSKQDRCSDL
# Summary of the method: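 Absorbance-based detection of thiocholine with DTNB served as the read-out. Recombinant human AChE was exposed to compound for 30 min at RT before a 10 min RT incubation with acetylthiocholine.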
# [17] = qHTS RealTime-Glo MT Cell Viability Assay in HepG2 cells - 16 hour (AID 1224885); note: nearly all actives have a fitted effect of over 50% in size; note: potency is the fitted concentration of half-maximal effect
# Summary of the method: as §1
# [18] = qHTS assay to identify small molecule antagonists of the farnesoid-X-receptor (FXR) signaling pathway - cell viability counter screen (AID 743221; active = well fitted cell-killing curve with a large enough effect in the repeat runs, not every such curve was filed as active; inconclusive = weak or mixed curves, or effect the other way; inactive = no such curve, though single readings can be large or run the other way; note: nearly all actives have a fitted effect of over 50% in size); conditions: FXR-bla HEK293T viability, CellTiter-Glo luminescence, 16 h; activity change, negative = cytotoxicity: at 62.6 µM (top of the series) unless noted
# Summary of the method: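 GeneBLAzer FXR-UAS-bla HEK 293T cells, compound plus chenodeoxycholic acid (50 uM final), 16 h at 37 C. CellTiter-Glo added to the same wells after the beta-lactamase read; luminescence read after 30 min at room temperature as viability.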
# [19] = qHTS assay to identify small molecule that activate the aryl hydrocarbon receptor (AhR) signaling pathway - cell viability counter screen (AID 743086);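 note: HepG2 liver cells carrying the AhR DRE luciferase reporter; nearly all actives have a fitted effect of over 45% in size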
# Summary of the method: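 Cytotoxicity counter screen: CellTiter-Fluor signal (30 min, 37 C) in 4000 HepG2 cells/well carrying the DRE-luciferase reporter, following 24 h compound exposure at 37 C.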
# Tags give direction and shape of the fitted curve.
smiles,measurement,setting,value
CCCCc1c(C)nc(NCC)[nH]c1=O,Potency,[1],inactive
CCS(=O)(=O)CCSP(=O)(OC)OC,Potency,[2],inactive
CCOC(=O)C(SP(=S)(OC)OC)c1ccccc1 (configuration not stated),Potency,[3],inactive
Cc1cc(Cl)ccc1O[C@H](C)C(=O)O,Potency,[4],"inconclusive: 61.6 µM [rising, partial curve, poor fit]"
CCOC(=O)NC(=S)Nc1ccccc1NC(=S)NC(=O)OCC,"activity change, positive = activation",[5],active: 11.4%
same,Potency,[6],"inconclusive: 19.3 µM [inhibitor, full curve]"
same,Potency,[7],"inconclusive: 38 µM [inhibitor, partial curve, poor fit]"
Cn1c(-c2ccccc2)cc(-c2ccccc2)[n+]1C,Potency,[2],inactive
same,Potency,Aromatase (Homo sapiens),active: 54.4 µM and active: 54.5 µM
[Cl][Sn]([Cl])([Cl])[Cl],Potency,[8],"inconclusive: 0.355 µM [rising, full curve, poor fit]"
same,Potency,[9],"inconclusive: 22.4 µM [activator, single point]"
same,Potency,[10],inactive
O=C(O)Cc1ccccc1,Potency,[11],inactive
same,Potency,[6],inactive
O=[N+]([O-])c1ccc([As](=O)(O)O)cc1,Potency,[12],inactive
CCCC1CCCCN1 (configuration not stated),Potency,[8],inactive
OCCOCCO,Potency,[13],inactive
same,Potency,[14],inactive
CCOP(=S)(Oc1ccc([N+](=O)[O-])cc1)c1ccccc1 (configuration not stated),Potency,[2],"inconclusive: 21.7 µM [cytotoxic, partial curve, poor fit]"
same,Potency,[10],inactive
OC[C@@H](O)[C@H]1O[C@@H]2O[C@H](C(Cl)(Cl)Cl)O[C@@H]2[C@H]1O,Potency,[14],inactive
O=CNC(N1CCN(C(NC=O)C(Cl)(Cl)Cl)CC1)C(Cl)(Cl)Cl (configuration not stated),Potency,[15],inactive
same,Potency,[3],inactive
CCC/C=N/O,Potency,[16],active: 34.2 µM
COc1ccc(-c2ccccc2)cc1NNC(=O)OC(C)C,Potency,[13],"inconclusive: 57.2 µM [cytotoxic, partial curve]"
same,Potency,[1],"inconclusive: 57.2 µM [falling, partial curve, poor fit]"
same,Potency,[17],"inconclusive: 57.2 µM [cytotoxic, partial curve, poor fit]"
COP(=O)(CCC(=O)NCO)OC,Potency,[11],inactive
same,Potency,[7],inactive
CCOP(=S)(OCC)SCSc1ccc(Cl)cc1,Potency,[3],inactive
N#Cc1ccncc1,Potency,[8],inactive
same,Potency,[18],inactive
same,Potency,[17],inactive
CCOP(=O)(N=C1SCCS1)OCC,Potency,[3],"inconclusive: 61.6 µM [activator, partial curve, poor fit]"
COc1cc2c(cc1OC)[C@@]13CCN4CC5=CCO[C@H]6CC(=O)N2[C@H]1[C@H]6[C@H]5C[C@H]43,Potency,[9],inactive
CNC(=O)Oc1ccccc1C(C)C,Potency,[16],active: 7.96 µM
C[C@@H](Oc1ccc(Cl)cc1Cl)C(=O)O,Potency,[1],inactive
Cc1cccc(C)c1NC1=NCCCS1,Potency,[17],inactive
CCCCn1cc[n+](C)c1C,"viability change, negative = cytotoxic",[8],inconclusive: -35.9% [cytotoxic] [at 78.9 µM]
same,Potency,[13],"inconclusive: 0.0614 µM [cytotoxic, partial curve, poor fit]"
same,Potency,[1],"inconclusive: 49.6 µM [falling, partial curve]"
same,Potency,[12],active: 44.2 µM
CC1(C)COP(Oc2ccccc2)OC1,Potency,[9],inactive
COc1cc(C[C@@H](C)N)c(OC)cc1C,Potency,[3],inactive
N#CC(Br)(Br)C(N)=O,Potency,Aromatase (Homo sapiens),"inconclusive: 77 µM [inhibitor, partial curve, poor fit]"
c1ccc2c(c1)CCCC2,Potency,[2],inactive
OCc1ccco1,Potency,[15],"inconclusive: 19.3 µM [activator, partial curve, poor fit]"
same,"activity change, positive = activation",[5],inconclusive: 14%
CCSC(C)CC1CC(=O)C(/C(CC)=N/OC/C=C/Cl)=C(O)C1 (configuration not stated),Potency,[4],inactive
C=CC(Cl)CCl (configuration not stated),Potency,[4],"inconclusive: 22.4 µM [falling, single point]"
CCCSC(=O)Cl,Potency,[19],inactive
same,Potency,[1],inactive
